# Results published in PubChem BioAssay AID463173 (ICCB-Longwood Screening Facility, Harvard Medical School, 2010).
# The whole screen tested about 52,000 compounds, of which about 4,300 (8.3%) were called active. Rule as the data show it: active = survival mostly below about 52% (no sharp cut-off); inactive = mostly above about 56%. This is one part of the list.
# System: DeltatarO mutant
# Test: S. aureus survival, RN4220 and DeltatarO strains – OD600, teichoic acid synthesis inhibitors, primary screen (AID 463173)
# Conditions: S. aureus RN4220 wild type/DeltatarO growth, OD600, 18 h, stronger effect = lower value, screened at 18.75 µg/mL (by protocol)
row,SMILES,survival
1,Cc1cccc(OCC(=O)Nc2c(C(=O)Nc3ccc(F)cc3)oc3ccccc23)c1,inactive: 96%
2,O=C(CN1C(=O)c2ccccc2S1(=O)=O)NC1CCCC1,inactive: 82%
3,Cc1cccc(N2C(=O)CSC23C(=O)N(C)c2ccccc23)c1 (stereo not given),inactive: 76%
4,COc1ccc(NCc2cc3ccc(OC)cc3n(CC(=O)Nc3ccc(C)c(C)c3)c2=O)cc1,inactive: 93%
5,C/C(=N\NC(=O)C1CC1(C)c1ccccc1)c1ccco1 (stereo not given),inactive: 106%
6,COc1cc(NC(=O)NCCc2c(C)nn(C)c2C)cc(OC)c1OC,inactive: 70%
7,CCCN1CCN(c2nnc(-n3cccc3C(=O)Nc3ccccc3C(F)(F)F)s2)CC1,inactive: 144%
8,CCc1ccc(-n2nc(C)c3c(C)cc(=O)n(CC(=O)Nc4cc(Cl)ccc4OC)c32)cc1,active: 52%
9,CCOc1ccc(OCC)c(NC(=O)c2cnn(-c3ccc(F)cc3)c2-n2cccc2)c1,inactive: 80%
10,Cc1cccc2c(=O)cc(CSc3ccccc3NC(=O)c3cccc(Cl)c3)[nH]c12,inactive: 87%
11,CCOc1ccc(-c2cc3c(=O)n(Cc4nc(-c5ccc(OCC)c(OC)c5)oc4C)ccn3n2)cc1Cl,inactive: 183%
12,CCCCn1cc2c(c1-c1ccc(Br)cc1)c(=O)n(C)c(=O)n2C,inactive: 58%
13,Cc1ccc2nc(CSc3nnc(NC(=O)C(C)C)s3)cc(=O)n2c1,active: -1%
14,CSc1ccc(C2c3c(-c4ccccc4O)n[nH]c3C(=O)N2Cc2ccncc2)cc1 (stereo not given),inactive: 70%
15,Cc1ccc(C)n1NC(=O)c1ccc(O)cc1,inactive: 102%
16,CCc1ccc(NC(=O)C2CCCN(S(=O)(=O)c3ccc4[nH]c(=O)ccc4c3)C2)cc1 (stereo not given),inactive: 85%
17,CCC1CN(C(=O)NCc2ccc(F)cc2)c2cc(C)ccc2O1 (stereo not given),inactive: 52%
18,Cc1ccc(/C=C/C(=O)NCCCn2ccnc2)cc1,inactive: 80%
19,CCOC(=O)C1CCN(C(=O)Cn2nc(C)n3c(cc4c(OC)cccc43)c2=O)CC1,inactive: 87%
20,COc1cccc(C(c2sc3nc(-c4ccco4)nn3c2O)N2CCC(C)CC2)c1 (stereo not given),inactive: 78%
21,O=C(CSc1ccnc(=O)[nH]1)NCc1ccc(F)cc1,inactive: 99%
22,COc1ccc(C2NCCS2)cc1 (stereo not given),inactive: 65%
23,COc1ccc(S(=O)(=O)Nc2cccc(-c3ccc(N4CCCCCC4)nn3)c2)cc1OC,inactive: 81%
24,CC(C)(C)OC(=O)N1CCC(c2c(C(=O)N3CCN(c4cccc(Cl)c4)CC3)cnn2-c2cccc(Cl)c2)CC1,inactive: 124%
25,CC(=O)Nc1cc2c(cc1C(=O)c1ccccc1)OCCO2,inactive: 108%
